Hit rate of the full screen: of about 52,000 compounds, about 4,300 (8.3%) were called active. No stated cut-off is given here; in the data, active means survival mostly below about 52% (no sharp cut-off); inactive means mostly above about 56%. Some of the results follow.
tested on: DeltatarO mutant; assay: S. aureus survival, RN4220 and DeltatarO strains – OD600, teichoic acid synthesis inhibitors, primary screen (AID 463173); details: S. aureus RN4220 wild type/DeltatarO growth, OD600, 18 h, hits give low values, screened at 18.75 µg/mL (by protocol)

Compound | survival
O=C(CSc1nnc(-c2ccccc2F)o1)Nc1cccc(C(F)(F)F)c1 | inactive: 54%
COc1ccc(C2C(C(=O)Nc3ccc(Cl)cc3)=C(C)Nc3nc(SCc4cccc(C)c4)nn32)cc1OC (stereo unspecified) | inactive: 99%
COc1ccc(-c2nc(C)c(CCNC(=O)c3cccs3)s2)cc1OC | inactive: 84%
COc1ccccc1CNc1cc(C)nc2nc(-c3ccc(C)cc3)nn12 | inactive: 93%
O=C(c1ccccc1)N1CCN(C2CCCCC2)CC1 | inactive: 107%
CC(C)(C)OC(=O)N1CCC(c2c(C(=O)N3CCN(c4ccccn4)CC3)cnn2-c2ccccc2)CC1 | inactive: 96%
Cc1ccc2nc(NC(=O)CSc3nccn3-c3ccc(Cl)cc3)sc2c1 | inactive: 71%
COc1ccc(-n2c(SCC(=O)N3CCc4ccccc43)nc3c([nH]c4ccccc43)c2=O)cc1 | inactive: 92%
CCOC(=O)C1CCCN(C(=O)Cn2ncc3c(C)n(Cc4ccccc4Cl)c(C)c3c2=O)C1 (stereo unspecified) | inactive: 125%
CCN(CC)CCCNC(=O)CCCn1ncn2c(cc3occc32)c1=O | inactive: 96%
COc1ccc(CN(C(=O)c2cc3ccccc3oc2=O)C2CCS(=O)(=O)C2)cc1OC (stereo unspecified) | inactive: 52%
CC1CCCCN1C(=O)Cn1ncc2c3ccccc3n(Cc3ccccc3F)c2c1=O (stereo unspecified) | active: 32%
CC(C)(C)C1CCc2c(sc3nc(-c4cc5ccccc5oc4=O)[nH]c(=O)c23)C1 (stereo unspecified) | inactive: 77%
COc1ccccc1-c1noc(-c2ccc(NC3CCCCC3)c([N+](=O)[O-])c2)n1 | active: 41%
Cc1c(-c2cccc(NC(=O)Nc3ccc(Cl)cc3)c2)nc2ncccn12 | active: -2%
c1ccc(-c2noc(-c3cccnc3NCc3ccco3)n2)cc1 | active: 60%
COCCNC(=O)Cn1c(=O)n(CCCCCC(=O)NCc2ccccc2Cl)c(=O)c2sccc21 | inactive: 77%
Cc1cccc(Cn2c(SCc3ccc(C(=O)NCc4ccccc4F)cc3)nc3ccncc32)c1 | inactive: 84%
Cc1ccc(NC(=O)Cn2c(=O)oc3cc(S(=O)(=O)N4CCCCC4)ccc32)c(Cl)c1 | inactive: 81%
Cc1oc2ncn(CC(C)C)c(=O)c2c1C(=O)NCCc1ccccc1 | inactive: 96%
COc1cccc(OCC(=O)NCCS(=O)(=O)N2CCN(c3ccccc3F)CC2)c1 | inactive: 78%
Cc1ccc(-c2nc(CNC(=O)Nc3ccccc3)c(C)o2)cc1 | inactive: 71%
CCN(CC)C(=O)CSc1nc2ccsc2c(=O)n1Cc1ccccc1Cl | inactive: 81%

Compound | survival
Cn1c(=O)n(C)c2cc(/C=C(/C#N)C(=O)NCc3ccco3)ccc21 | inactive: 78%
CCc1nc2cccnc2n1-c1ccc(CC(=O)Nc2c(C)cccc2C)cc1 | inactive: 67%
Cc1cc(C)n2c(Nc3ccc(C(C)C)cc3)c(-c3ccsc3)nc2n1 | inactive: 102%
COCCCNC(=O)c1cnc2sc(N3CCCCCC3)nn2c1=O | inactive: 88%
Cc1ccc2c(c1)-c1c(cnn1CC(=O)N1CCN(c3ccccc3F)CC1)CO2 | inactive: 73%
CCCCN(CCCNC(=O)CN1N=C(c2ccc(C)cc2)CCC1=O)c1ccccc1 | inactive: 92%
COc1cccc(NC(=O)CCc2nc3c(C)nn(-c4ccc(C)cc4)c3n(C)c2=O)c1 | inactive: 81%
O=c1c(=O)n(Cc2ccc(Cl)cc2)ccn1Cc1ccc(F)cc1 | inactive: 54%
CCSc1nc2c(c(=O)[nH]c(=O)n2C)n1CC | inactive: 73%
Nc1nnc(SCC(=O)C2CC2)s1 | inactive: 80%
Cc1ccc(NC(=O)c2ccc(CN3CC(=O)N4CCCCC4C3=O)cc2)cc1 (stereo unspecified) | active: -5%
CCc1cccc(NC(=O)Cn2c(=O)n(-c3cccc(Cl)c3)c(=O)c3c2c2cc(C)ccc2n3C)c1 | inactive: 62%
Cc1ccc(S(=O)(=O)N(C)CC(=O)O)cc1 | inactive: 80%
COc1ccc(OC)c(CNC(=O)c2cnc3c(C)cccn3c2=O)c1 | inactive: 102%
CCc1nn2c(=O)cc(COC(=O)c3ccc(NC(=O)COc4ccc(C)cc4)cc3)nc2s1 | inactive: 115%
Cn1c(SCC(=O)N2CCCc3ccccc32)ncc(C(=O)Nc2ccccc2)c1=O | inactive: 94%
COc1ccc2[nH]c3nc(SCC(=O)NC(C)(C)C)nnc3c2c1 | inactive: 98%
CC1=C(C(=O)Nc2ccc(C)cc2C)C(c2ccc(C(=O)O)cc2)n2nc(SCc3ccccc3)nc2N1 (stereo unspecified) | inactive: 75%
CCOc1ccc(CNC(=O)CC(C)n2nc(C)cc2C)cc1OC (stereo unspecified) | inactive: 74%
CCOC(=O)N1CCN(C(=O)CN(C)S(=O)(=O)c2cc(Cl)ccc2Cl)CC1 | inactive: 81%
Cc1ccc2c(c1)c1c(c(=O)n(-c3ccccc3)c(=O)n1CC(=O)c1ccc(F)cc1)n2C | inactive: 91%
Cc1ccc(OCCCC(=O)Nc2ccc3c(c2)OCO3)cc1 | inactive: 100%
COc1ccc(-n2cc(-c3ccccc3)c3c(NC4CCCC4)ncnc32)cc1 | inactive: 72%

Compound | survival
Cc1cccc(Oc2nc3c(c(=O)n(C)c(=O)n3C)n2Cc2ccccc2)c1C | inactive: 53%
CC(C)(C)NS(=O)(=O)c1ccc(NC(=O)CN2C(=O)c3ccccc3C2=O)cc1 | inactive: 91%
CC(C)CC(=O)Nc1cc(-c2ccccc2F)nn1-c1ccccc1 | inactive: 84%
Cc1cccc(C)c1OCc1cc(=O)n2c3c(sc2n1)CCCC3 | active: -17%
CSc1ccc(Cn2nnc(C(=O)Nc3ccc(C)cc3Cl)c2N)cc1 | inactive: 99%
CCN(c1ccccc1)S(=O)(=O)c1ccc(-c2cc(C)no2)s1 | inactive: 134%
Cc1cc(C)cc(NC(=O)CSc2nc(=O)n(Cc3ccccn3)c3c2CCC3)c1 | inactive: 74%
CCOC(=O)C(C)Sc1nc(-c2ccccc2Cl)cc(-c2ccccc2)c1C#N (stereo unspecified) | inactive: 64%
Cc1ccc2[nH]c(=O)c(CN(C(=O)c3cccc(Cl)c3)C(C)(C)C)cc2c1 | inactive: 94%
Cc1ccc(NC(=O)c2cc3nc(-c4ccccc4)cc(-c4ccccc4)n3n2)cc1 | inactive: 60%
Cc1ccc(CNC(=O)c2cnn(-c3cccc(C)c3)c2C2CCN(C(=O)OC(C)(C)C)CC2)cc1 | inactive: 75%
COc1ccc(CCNC(=O)c2ccc(Cn3c(=O)c4ccccc4n(Cc4cccc(C)c4)c3=O)cc2)cc1OC | inactive: 111%
CCC1CCCCN1S(=O)(=O)c1cc(C(=O)Nc2ccc(C)c(F)c2)ccc1F (stereo unspecified) | inactive: 94%
CCOCCCn1c(=N)c(C(=O)NC2CCCC2)cc2c(=O)n3cc(C)ccc3nc21 | inactive: 84%
O=c1ccc2nc3ccccc3c(=O)n2[nH]1 | inactive: 85%
COc1ccccc1Cc1nc2ccccc2nc1SCC(=O)Nc1cc(Cl)ccc1OC | inactive: 73%
Cc1cc(C)cc(NC(=O)Nc2nnc(N(C)C3CCCCC3)s2)c1 | inactive: 105%
COc1ccccc1-c1noc(CCCC(=O)NCc2ccco2)n1 | inactive: 54%
COc1ccc2sc(N(Cc3cccnc3)C(=O)COc3ccccc3)nc2c1 | inactive: 64%
CCOc1ccc(CCNc2nc3ccccc3n3c(C)nnc23)cc1OCC | inactive: 107%
COc1cc(NC(=O)Cn2c(=O)n(CC3CCCO3)c(=O)c3ccccc32)cc(OC)c1 (stereo unspecified) | inactive: 103%
C=CCn1c(/N=C/c2ccc3c(c2)OCO3)nc2ccccc21 | inactive: 68%
O=C(Nc1cccc(C(F)(F)F)c1)c1cc2nc(-c3ccc4c(c3)OCO4)cc(C(F)(F)F)n2n1 | inactive: 88%

Compound | survival
Cc1ccc(-c2nc(CSc3nncn4c3cc3occc34)c(C)o2)cc1 | inactive: 67%
NCCc1nc2cccnc2n1-c1ccccc1 | inactive: 85%
C=CCC(c1ccccc1)N(C(C)=O)c1ccco1 (stereo unspecified) | inactive: 75%
CCc1ccccc1NC(=O)c1nnn(Cc2ccc(Cl)cc2)c1N | inactive: 77%
CCOC(=O)c1c(S(=O)(=O)N2CCC(C(=O)Nc3ccc(C)cc3C)CC2)c(C)n(C)c1C | inactive: 88%
N#Cc1nc(-c2ccccc2)oc1NCCCn1ccnc1 | inactive: 93%
Cc1cc(C)cc(NC(=O)c2cnc3sc(N4CCCC4)nn3c2=O)c1 | inactive: 90%
COCCNC(=O)CSc1nc(-c2ccccc2)[nH]c1-c1ccc(OC)cc1 | inactive: 80%
Cc1cc(CN2CCN(c3cccc(C)c3C)CC2)cs1 | inactive: 76%
CCOC(=O)C1=C(CN2CCN(c3ccc(OC)cc3)CC2)NC(=O)NC1c1ccc(Cl)cc1 (stereo unspecified) | inactive: 76%
COc1cccc(-n2c(SCC(=O)Nc3nnc(C)s3)nc3c([nH]c4ccccc43)c2=O)c1 | inactive: 60%
Fc1ccc2[nH]c(-c3cccs3)cc2c1 | inactive: 54%
CC(C)Cn1c(=O)c2sccc2n2c(CCCC(=O)N3CCN(c4ccc(F)cc4)CC3)nnc12 | inactive: 97%
O=C(NCc1ccccc1Cl)c1ccc2c(c1)N(Cc1ccccc1)C(=O)CS2 | inactive: 101%
CC1CCN(S(=O)(=O)c2ccc3c(c2)c(=O)c(C(=O)NC(C)c2ccccc2)cn3C)CC1 (stereo unspecified) | inactive: 68%
CN(CC(=O)Nc1ccccc1F)S(=O)(=O)c1ccc2c(c1)c(=O)n(C)c(=O)n2C | inactive: 134%
COc1ccc(CCC(=O)NCc2nc3cccnc3n2Cc2ccc(F)cc2)cc1 | inactive: 119%
Cc1ccc(Cl)cc1N1CCN(C(=O)c2ccc3c(c2)CCN3S(=O)(=O)c2ccccc2)CC1 | inactive: 48%
Cc1ccc(-c2nnc(Nc3cccc(O)c3)c3ccccc23)cc1S(=O)(=O)NCC1CCCO1 (stereo unspecified) | inactive: 74%
CCSC1=C(C#N)C2(CCCCC2)C(C#N)=C(N)N1 | inactive: 68%
O=c1c2ccccc2nc2n1CCN2 | inactive: 123%
CCOC(=O)N1CCC(NC(=O)c2cnn(-c3cccc(F)c3)c2-n2cccc2)CC1 | inactive: 95%

— PubChem BioAssay AID463173 (ICCB-Longwood Screening Facility, Harvard Medical School, 2010)
